Test results: PMC10017685 (Nature Communications, 2023)
In brackets after ≈: the same amount, converted by molar mass. Like-named read-outs stand apart in the source and are kept apart here.

Columns and labels:
[1] = tested on: E. coli ATCC 25922; format: cell-based, Escherichia coli
Experimental: (§1) Fresh cultures were used in antimicrobial assay. […] Moreover MBC was evaluated. […] All experiments were conducted in triplicate.

[2] = tested on: A. baumannii ATCC BAA 1605; format: cell-based, Acinetobacter baumannii; details: triplicate; for A. baumannii ATCC BAA 1605 MBC: second round, MIC well and two higher concentrations seeded on agar plates, no visible colonies; for A. baumannii ATCC BAA 1605 MIC: second experimental round, broth microdilution (CLSI), Mueller-Hinton Broth, 0.5 × 10^5 CFU/mL, 1-[…], 18 h at 37 °C
Experimental: as §1

[3] = tested on: S. aureus ATCC 33591; format: cell-based, Staphylococcus aureus
Experimental: as §1

[4] = tested on: E. coli ATCC 43827; format: cell-based, Escherichia coli
[5] = tested on: P. aeruginosa ATCC 9027; format: cell-based, Pseudomonas aeruginosa; details: triplicate; for P. aeruginosa ATCC 9027 MIC: second experimental round, broth microdilution (CLSI), Mueller-Hinton Broth, 0.5 × 10^5 CFU/mL, 1-[…], 18 h at 37 °C; for P. aeruginosa ATCC 9027 MBC: second round, MIC well and two higher concentrations seeded on agar plates, no visible colonies
Experimental: as §1

[6] = tested on: Sheep red blood cells; assay: Hemolysis assay (HC50); format: cell-based; details: for HC50: sheep red blood cells 4% (v/v) in PBS, peptides 1-[…], 60 min at 37 °C, hemoglobin release at 590 nm, 1% Triton-X 100 = 100% hemolysis, triplicate, HC50 by ic50.tk; for HC50 (µM/ml): sheep erythrocytes, recalculated from μg/mL values, estimated as in https://pubmed.ncbi.nlm.nih.gov/29307075/
[7] = Supplementary Data 5F, analogue generation without additional preselection
[8] = first experimental round, broth microdilution (CLSI), Mueller-Hinton Broth, 0.5 × 10^5 CFU/mL, 1-[…], 18 h at 37 °C, triplicate
[9] = second round, MIC well and two higher concentrations seeded on agar plates, no visible colonies, triplicate
[10] = second experimental round, broth microdilution (CLSI), Mueller-Hinton Broth, 0.5 × 10^5 CFU/mL, 1-[…], 18 h at 37 °C, triplicate

| SMILES | E. coli ATCC 25922 MBC ([1]; Supplementary Data 5D/5E) [µg/mL] | E. coli ATCC 25922 MIC ([1]; Supplementary Data 5D/5E) [µg/mL] | E. coli ATCC 25922 MBC [1, 9] [µg/mL] | A. baumannii ATCC BAA 1605 MBC [2] [µg/mL] | S. aureus ATCC 33591 MBC ([3]; Supplementary Data 5D/5E) [µg/mL] | S. aureus ATCC 33591 MIC ([3]; Supplementary Data 5D/5E) [µg/mL] | S. aureus ATCC 33591 MBC [3, 9] [µg/mL] | E. coli ATCC 43827 MBC ([4]; Supplementary Data 5D/5E) [µg/mL] | E. coli ATCC 43827 MIC ([4]; Supplementary Data 5D/5E) [µg/mL] | E. coli ATCC 43827 MBC [4, 9] [µg/mL] | P. aeruginosa ATCC 9027 MIC [5] [µg/mL] | P. aeruginosa ATCC 9027 MBC [5] [µg/mL] | HC50 [6] [µg/mL] | E. coli ATCC 25922 MIC [1, 10] [µg/mL] | A. baumannii ATCC BAA 1605 MIC [2] [µg/mL] | E. coli ATCC 43827 MIC [4, 10] [µg/mL] | HC50 (µM/ml) [6] [µM/ml] | S. aureus ATCC 33591 MIC [3, 10] [µg/mL] | other results |
| --- | --- | --- | --- | --- | --- | --- | --- | --- | --- | --- | --- | --- | --- | --- | --- | --- | --- | --- | --- |
| CC(C)C[C@H](NC(=O)[C@H](CC(C)C)NC(=O)[C@H](CCCCN)NC(=O)[C@H](Cc1ccccc1)NC(=O)[C@H](Cc1ccccc1)NC(=O)[C@H](CCCCN)NC(=O)[C@@H](NC(=O)[C@H](CC(C)C)NC(=O)CNC(=O)[C@H](CC(C)C)NC(=O)[C@@H]1CCCN1C(=O)[C@H](CCCCN)NC(=O)[C@H](CCCCN)NC(=O)[C@H](CC(C)C)NC(=O)[C@H](C)NC(=O)[C@H](Cc1ccccc1)NC(=O)[C@H](Cc1c[nH]c2ccccc12)NC(=O)[C@H](CC(C)C)NC(=O)[C@H](CCCCN)NC(=O)[C@H](CCCCN)NC(=O)CNC(=O)[C@@H](NC(=O)CN)C(C)C)C(C)C)C(N)=O [Hydraganan-1] | 8 | 8 | 8 | 4 | 8 | 8 | 8 | 16 | 16 | 16 | 32 | 64 | >512 |  |  |  |  |  | E. coli ATCC 25922 MIC [1, 7]: 2 µg/mL; MIC E. coli ATCC 25922 [1, 8]: 2 µg/mL (≈ 0.76 µM); E. coli ATCC 43827 MIC [4, 7]: 2 µg/mL; MIC E. coli ATCC 43927 [4, 8]: 2 µg/mL (≈ 0.76 µM) |
| CC[C@H](C)[C@H](NC(=O)[C@H](CCCNC(=N)N)NC(=O)[C@H](Cc1c[nH]c2ccccc12)NC(=O)[C@H](Cc1ccccc1)NC(=O)[C@H](CCCNC(=N)N)NC(=O)[C@H](CCCNC(=N)N)NC(=O)[C@H](CC(C)C)NC(=O)[C@@H](N)Cc1ccccc1)C(=O)N[C@@H](Cc1c[nH]c2ccccc12)C(=O)N[C@@H](CCCNC(=N)N)C(=O)N[C@@H](CCCNC(=N)N)C(N)=O [Gedanan] | 32 | 32 | 32 | 64 | 16 | 8 | 16 | 32 | 32 | 32 | 16 | 32 | 512 | 32 | 32 | 32 | 216 |  |  |
| CC[C@H](C)[C@H](NC(=O)[C@H](CCCCN)NC(=O)[C@H](CCCCN)NC(=O)[C@@H](NC(=O)[C@@H](NC(=O)[C@H](CCCCN)NC(=O)[C@@H](NC(=O)[C@H](C)NC(=O)[C@@H](NC(=O)[C@H](Cc1c[nH]cn1)NC(=O)CNC(=O)[C@H](C)NC(=O)[C@H](CC(C)C)NC(=O)[C@H](CC(=O)O)NC(=O)[C@H](CCCCN)NC(=O)[C@H](C)NC(=O)CNC(=O)CNC(=O)[C@H](CCCCN)NC(=O)[C@H](CC(C)C)NC(=O)[C@H](Cc1c[nH]cn1)NC(=O)[C@H](CC(=O)O)NC(=O)[C@@H](NC(=O)[C@@H](NC(=O)CN)C(C)C)[C@@H](C)CC)C(C)C)[C@@H](C)O)C(C)C)[C@@H](C)CC)C(N)=O [Syphaxin-TII8] |  |  | >512 | >512 |  |  | >512 |  |  | >512 | >512 | >512 | >512 | >512 | >512 | >512 | 147 | >512 |  |
| CC[C@H](C)[C@H](NC(=O)[C@H](CCCCN)NC(=O)[C@H](CCCCN)NC(=O)[C@@H](NC(=O)[C@@H](NC(=O)[C@H](CCCCN)NC(=O)[C@@H](NC(=O)[C@H](C)NC(=O)[C@@H](NC(=O)[C@H](Cc1c[nH]cn1)NC(=O)CNC(=O)[C@H](C)NC(=O)[C@H](CC(C)C)NC(=O)[C@H](CC(=O)O)NC(=O)[C@H](CCCCN)NC(=O)[C@H](C)NC(=O)[C@H](C)NC(=O)[C@H](CO)NC(=O)[C@H](CCCCN)NC(=O)[C@H](CC(C)C)NC(=O)[C@@H](NC(=O)[C@H](CCC(=O)O)NC(=O)[C@H](CC(C)C)NC(=O)[C@@H](NC(=O)CN)C(C)C)[C@@H](C)CC)C(C)C)[C@@H](C)O)C(C)C)[C@@H](C)CC)C(N)=O [Syphaxin-TII7] |  |  | 512 | 64 |  |  | 64 |  |  | 512 | 512 | >512 | >512 | 256 | 64 | 512 | 151 | 64 |  |
| CC[C@H](C)[C@H](NC(=O)[C@H](CCCCN)NC(=O)[C@H](CCCCN)NC(=O)[C@H](CC(C)C)NC(=O)[C@@H](NC(=O)[C@H](CCCCN)NC(=O)[C@@H](NC(=O)[C@H](C)NC(=O)[C@@H](NC(=O)[C@H](Cc1c[nH]cn1)NC(=O)CNC(=O)[C@H](C)NC(=O)[C@H](CC(C)C)NC(=O)[C@H](CC(=O)O)NC(=O)[C@H](CCCCN)NC(=O)[C@H](C)NC(=O)[C@H](C)NC(=O)CNC(=O)[C@H](CCCCN)NC(=O)[C@H](CC(C)C)NC(=O)[C@H](CC(C)C)NC(=O)[C@H](CCC(=O)O)NC(=O)[C@H](CC(C)C)NC(=O)[C@@H](NC(=O)CN)C(C)C)C(C)C)[C@@H](C)O)C(C)C)C(N)=O [Syphaxin-TI4] |  |  | 256 | 128 |  |  | >512 |  |  | 512 | >512 | >512 | >512 | 256 | 64 | 512 | 152 | >512 |  |
